# Data reported in the supplement of paper PMC11417369.
# Some of the results follow.
# System: PfAP2-HC AP2 domain (GST-tagged)
# Test: gcPBM binding intensity (ln(normalized median fluorescence intensity)); higher = stronger DNA binding
# Outline: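 Binding intensity values are the highest Masliner-normalised natural-log median intensity among replicate spots of either probe orientation. The binding step lasted 1 h in 1× PBS with 1% milk, 0.2 mg/ml BSA, 0.5% salmon testes DNA and 0.03% Triton X-100, using GST-tagged P. falciparum DNA-binding domains expressed in E. coli on an Agilent 4 × 180k array of primer-extended double-stranded 36-bp intergenic genomic probes plus negative controls. Alexa488 anti-GST antibody and a 488 nm scan detected bound protein.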
row,Sequence,gcPBM binding intensity (ln)
1,TAGCGCATAAAAAAAAAAAAATATATACTAATAAAT [GTGCAC_negctrl_site276],9.47
2,TTTTTTTTCAATCTCTATATATTAAGGTTTATATTT [XGTACX_negctrl_site397],9.59
3,TTACTTAAATATAAGTGTCCTCAAAAAAAAAAAAAA [XGTACX_site460],9.11
4,AATATAAGTTTATTAGTGCACAGATAAATATATATT [GTGCAC_site9784],9.84
5,ATTTTTTATATTAATTGTACATTGTATATATATATA [XGTACX_site8702],9.75
6,ATGTATGTTTTTTTTTTATTGTTCAAAAAGTTGAAG [CACACA_negctrl_site1276],9.46
7,TGAGTTACATACTAATGTACACAACAAAAAAAAAAA [XGTACX_site2390],9.59
8,TTTTTTTGAACATATACACACTCTAAACTTATACAT [CACACA_site3917],9.78
9,AAAGGTTTATATGATACACACATAAGTGATCAGGTT [CACACA_site190],9.77
10,AAAAACTAATCTTTAACATGCAACCGTTTATACATA [TGCATGCA_site363],9.54
11,AAAAATTATGGACACACACACATATATATATATATT [CACACA_site4717],10.3
12,GGTATACGCAAGTATACACACATATATATATATATA [CACACA_site3240],9.68
13,AATAAAATAAAATACACACATACATACATACAAATG [CACACA_site2438],11.2
14,TAATTTATGACACGCGCACACATATATATATAGTAA [CACACA_site4249],9.92
15,ACCCATAAAAAGGATACACACACACCCACCCATATA [CACACA_site8205],10.6
16,ATATATATATTTGTATGTACATATATATATTCGTAT [XGTACX_site1640],9.72
17,TTTCCTTATTAAAACACACAAATACATTATTTAATC [CACACA_site7080],9.7
18,ACTGTAAAAGGATTTACACACATATTTACATTTACA [CACACA_site519],9.91
19,TACCAATGCATAACGGTGCAAAAAAATAAGGAATAA,9.61
20,ATGCATATAACTACGTGTACAAATATACACAAATAC [XGTACX_site8811],9.79
21,GTACGATAAAAAATTGGACAAAAAAAAAAAAAAAAT [XGTACX_negctrl_site158],9.59
22,ATTTCATAAATTAAACGTACATAATACACACACATG [XGTACX_site4155],11
23,TAAAACAACAAAGAAAATGAAAAAGTAAAAACATAT [CACACA_negctrl_site1049],9.77

row,Sequence,gcPBM binding intensity (ln)
1,TTTTGCAATAATGTTGCACACTAAATAGTCATCTAT [CACACA_site4304],9.73
2,TTTTGTTATTTTTTAGTGCATATAAAGGTTGTTAAG,9.39
3,ACATTTTTTTCATATCGTACATATTATAATATTTTC [XGTACX_site6524],9.84
4,AAAAAAAAAAAAGGAGGTACACAATTTTATATATGC [XGTACX_site5296],9.66
5,ACAAGTCAGGCAAAAACATGCATTATTTGAACATTA [TGCATGCA_site864],9.68
6,GAGCATTACCCATATACACACATATATATAAACCTA [CACACA_site2737],9.98
7,ATTATATTAAAATACACACCCAAATATTAAAAAGAT [CACACA_site5613],10.1
8,TGATAAAATGGGGAAATTCATTATATCATATCTTGG [CACACA_negctrl_site789],9.5
9,TTGGATAAAAAATATGTACACACATATAGATATCTA [CACACA_site8862],9.7
10,TTTCTTCTTCTATTGTGTACGTAAAAAAAAAAAAAA [XGTACX_site772],9.09
11,TTTGAAATATTAAATGCATGTTAAAACATAAAAATG [TGCATGCA_site680],9.49
12,GGTAATTTCCTTTTTTGTACTCATAGAAGGATAATA [XGTACX_site89],9.35
13,TCAGATATATATATATAAATATATATTTTGAAATGT [CACACA_negctrl_site686],9.7
14,TAGTATCCAAGAAAAAGTACTTATTTTAATTTTTTA [XGTACX_site6243],9.42
15,TCATTTAAGTAGACGCGTACGGAAATTACGAATCCT [XGTACX_site144],9.65
16,AATATTTATAAAGACACACAAACAAAAAGGATAAAA [CACACA_site2985],10.3
17,ATTATTATATTTATATGTACATAGAAAAAATTAAAT [XGTACX_site2058],9.57
18,AAAAATAAAGGATATACACACTAATTATATATATAT [CACACA_site5550],9.91
19,AAGACTGCACTTTAAGCACACAAATATATTTTTTTT [CACACA_site8337],9.79
20,AAGAAAAAAATTTAATTAAATGAAATTTTTGAATTA [TGCATGCA_negctrl_site25],9.45
21,TTTTTTTTTTGTTGAGTGCAATTATTTGTAAGAAAA,9.18
22,AAATTAATATATAAAAGTACCCATATATTTAATATA [XGTACX_site3551],9.36
23,AGTTTGTTTTTTTTTTTTTTTTCCTGTCACAAACAA [CACACA_negctrl_site1093],9.57

row,Sequence,gcPBM binding intensity (ln)
1,TCTCCACCTCTCTTGGTGCGTTATACCCTCGAGGCT,9.71
2,TATAACAAAATATTCACACATATAAGTAAATAAAGG [CACACA_site5777],9.84
3,TCAAAGCACCCATACACACACATATATATATATATA [CACACA_site4317],10.5
4,GTCATATATATATGTACACACATATATATATTTATA [CACACA_site1459],9.81
5,GTACGTTACATAAATGTGCACATATTATATGCGAAG,9.87
6,TTCTGACTTGTTATAATTTGTATATCCGAAAAAATT [TGCATGCA_negctrl_site456],9.51
7,TACATATTTTGTATATATTATTTATTTTATTAGTTT [XGTACX_negctrl_site85],9.51
8,ACTATTATTAAAAATTGTACTTTCTATAAATTTTTT [XGTACX_site7825],9.72
9,ATAACATCAGTATTATGTACATATGTAGGTAAATAA [XGTACX_site7066],9.99
10,CGTTATTATACACATACACACAGGAATAAAAAATTA [CACACA_site7373],9.91
11,ATTTTGTGTAGTGATGCATGTTATATATATATTTGA [TGCATGCA_site422],9.83
12,AGAAACATATGGTAGTGTACTGTAAATTTATTCTTT [XGTACX_site8602],9.76
13,TTTTATCAAATATTTATTTTATACATAAATATTTAT [XGTACX_negctrl_site528],9.74
14,CTTTTTATTTAGGAGGTGCATGTAATACGGAACATA,9.35
15,TTTTGTTTAATATTCACACATATATATTTTTTATTT [CACACA_site5496],9.84
16,CATACTGTTATAAAATGTACGCATATACACACACAT [XGTACX_site7256],10.4
17,ATTTGTTATATATTCTTTTATGTTAATAATTCGAAT [CACACA_negctrl_site378],9.6
18,TATGAATAAAAAAGAAGTACAAATTATATGAACGCA [XGTACX_site3018],9.95
19,AAAAAATACAAACACACACACACACCCATATATATA [CACACA_site3560],11
20,AAAAAATTGACTAATGCACACAATTACAGATATATA [CACACA_site5010],9.89
21,AAAGATAAAAAAAGTACACACACACCGATATATATA [CACACA_site9006],10.6
22,CACGAACACAAACACAAACACACATCATATATATAT [CACACA_site1322],10.1
23,ACTTTAACCTGAACGGTGCATAAAATTTTGGCATTA,9.48

row,Sequence,gcPBM binding intensity (ln)
1,AATATATATAAAAAGGGAAAAATATATAAATAGATA [XGTACX_negctrl_site52],9.7
2,TTTCATTAATCTAATAGTACAGAAAATTGAGAAAAA [XGTACX_site8395],9.2
3,TCTATTAATTAATATACACACATTATGTATATATAT [CACACA_site2541],9.82
4,GTATACAAACATATAAATATAAATGTATTATTTGTT [CACACA_negctrl_site756],9.58
5,TCGTGCATAAATCATACACACACACCGATATATATA [CACACA_site8767],10.2
6,TCACAATTTTTTAGTACACACATATAAATATATAAA [CACACA_site1537],9.58
7,TTTGTATCCTTTTTGACATGCAACCATTCGGGTACA [TGCATGCA_site506],9.39
8,AAAAAAAAAAAAAACGCACACATTTTTACAATTCTA [CACACA_site3271],9.99
9,AAAAAATTAATAAAAACACACAAAAAAAATAAACAA [CACACA_site1907],9.95
10,TTTGTTGTTTGGAGATGTACATATTTTACACTTTTT [XGTACX_site5965],10.4
11,ATTTCACAGAGACACACACACAATATATTTCCTTTT [CACACA_site7773],10.3
12,TAAACATAATATTTAACACACATGAAGATGTATATT [CACACA_site1036],9.78
13,ATAAATATTTACAAAAGTACACATAACTTTAGATAT [XGTACX_site1685],9.6
14,CACCATGATACATACACACAGACATATACGCATTCA [CACACA_site1008],9.9
15,GTTTTGGCTAACTATTCACACATTAAAATATTACCA [CACACA_site5016],9.72
16,ACAATCCACAGGGGCGCACACATATAAGCAGTATAT [CACACA_site3817],10
17,AACCGGGCCTAAGATGTAATGCCTTAGCCTATAAAA [CACACA_negctrl_site479],9.36
18,CATAATATGACATACACACACAAAAAAAAAAAAATA [CACACA_site1285],10.1
19,TTTATATTAAAATATTGTACGGACATTATTTTGTAA [XGTACX_site8128],9.46
20,ATAAAATATATGAAGACACACATAACATCATATTTT [CACACA_site3144],9.89
